Results on 56 variants are retold here after the RNAGym collection of RNA variant scans (doi:10.7554/elife.90254).

Sequences and labels used below:
B1: LINE1-mini (parent)
chain: GGCAGAGCUCAACACAGCGUGGCAAAGUGGCUGUGGCUAGACUGCC

The source gives no read counts; variants with many changes may rest on few reads.

This series covers variants of B1. Briefly: self-cleavage, relative activity (ratio to wild type); higher = more cleavage; in vitro, sequencing; the parent is a self-cleaving ribozyme.
Turning to GGCAGAGCUCUACACAGCGUGGCAAAGUGGCUGUCGCUAGACUUCC [A11U G35C G44U], the self-cleavage came out at 0.04.

As for GGCAGAGCGAUACACAGCGUGGCGAAGUGGCUGUUGCUAUACAGCC [U9G C10A A11U A24G G35U G40U U43A], the self-cleavage was 0.01.

On to GUCAGAGCUCAAUACAGCGUGGCAAAGUGGCUGUCGCUAGACUGCC [G2U C13U G35C], for which the self-cleavage came out at 0.03.

Take GGCAUAGCUAAACACAGCGAUGCAAAGUGGCUGUGGCUAGACUGCC [G5U C10A U20A G21U]: the self-cleavage was determined as 0.

In the case of GGCAGCGCUAAACACAGCGUGGCAAAGUGGCUGUGGCUAGACUGCA [A6C C10A C46A], the self-cleavage was determined as 0.07.

Take GGCGGAGCUCAACACAGCGUGGCAAAGUGGCUGUGGCUAGACACCC [A4G U43A G44C]: the self-cleavage worked out at 0.01.

With GGCAGAGCUCAAAACAGCAUGGCAAAGUCGCUGUGGCUACACUGCC [C13A G19A G29C G40C], the self-cleavage worked out at 0.07.

With GGUAGAGCUCACCACAGCGUGGCAAAGUGGCUGUGGCUAGGCUGCC [C3U A12C A41G], the self-cleavage worked out at 0.02.

GGCCGAGCUCAACACAGCGUGGCACAGUGGCUGUGGCUAUACUGCC [A4C A25C G40U]: the self-cleavage is 0.1.

GGCAGAGCUCAUCACAGCGUGGCAAAGUGGCUCUGGCUAGACUGCU [A12U G33C C46U]: the self-cleavage is 0.01.

For the variant GGCAGAGGUUAACACAGCGUGGCAAAAUGGCUGUGGCUAAACUGCC [C8G C10U G27A G40A], the self-cleavage was 0.02.

Regarding GGCAGAUCUCAACACACCGUUGCAAAGUGGUUGUGGCUAGACUGCC [G7U G17C G21U C31U], the self-cleavage was 0.01.

Turning to GGCAGAGCUCAACACAGCGUGGCAAAGUGACGGUGGCUAGACUCCC [G30A U32G G44C], the self-cleavage turned out to be 0.03.

For the variant GGCAGAGCUCAGAACAGCGUGGCACAGCGGCUGUGGCUAGACUGCC [A12G C13A A25C U28C], the self-cleavage turned out to be 0.02.

For GGCAGAGCUCAACACAGCGUGCCAAAGUGGCUGUGGCUAGUCUACC [G22C A41U G44A], the self-cleavage amounted to 0.12.

On to GGCCGAGCUCAACACAGGGUAGCAAAGUGGCUGUGGCUAGACUGCC [A4C C18G G21A], for which the self-cleavage came out at 0.03.

On to GGCAGAGCUCAAGACAUAGUGGCAAAGUGGCUGUGGCUAGACUGGC [C13G G17U C18A C45G], for which the self-cleavage was 0.12.

With GGCUGAGCUCAACACAGUGUGGCAAAGUGGCUCUGGCUAGACUGCC [A4U C18U G33C], the self-cleavage is 0.03.

GGCAGAGCUCAACACAGCGUGGCAAAUUGGUUGGGGCUAGACUGCC [G27U C31U U34G]: the self-cleavage came to 0.02.

Regarding GGCAGAGCUCAGCACAGCGUGGCAAAGUGGUUGUUGCUAGACUGCC [A12G C31U G35U], the self-cleavage turned out to be 0.02.

Take GGCAGAGCUCAACACAGCGCGGCAAAGCGGCUGUGGCUAGACUGAC [U20C U28C C45A]: the self-cleavage came out at 0.29.

Take GGCAAAGCUAAACACAGCGUGACAAAGUGGCUGUGGCUAGACUGCC [G5A C10A G22A]: the self-cleavage is 0.04.

On to GGCAGAGCUCAAAACAGCGUGGCUAACUGGCUGUGGCUAGACUGGC [C13A A24U G27C C45G], for which the self-cleavage turned out to be 0.12.

Take UGCAGAGCUCAAGAAAACGUGGCAUAGUGGCUGUGGCUAGACUGCC [G1U C13G C15A G17A A25U]: the self-cleavage was 0.12.

Turning to UGCACAGCUCAACACAGUGUGGAAAAGUGGCUGUGGCUAGACUGCC [G1U G5C C18U C23A], the self-cleavage was found to be 0.02.

In the case of GGCAGAGCUCAACACAGUGUGGCAAAGUGCUUGUGGCUAGACUGCC [C18U G30C C31U], the self-cleavage was 0.04.

For GGCAGAGCUCAACACAGUGUGGCAAACUGGCUGUGGCCAGACUGUC [C18U G27C U38C C45U], the self-cleavage was 0.08.

Regarding GGCAGAGCUCAACGUAGCGUGGCAAAGUGGCUGUGGCUAAACUGCC [A14G C15U G40A], the self-cleavage was determined as 0.06.

GGCAGAGCACAACACAGCGUGGCAAAGUUUCUGUGGCUAGACUGCC [U9A G29U G30U]: the self-cleavage turned out to be 0.19.

GGCAGAGCUCAACACAGCGUGGCAUAGUGACUUUGGCUAGACUACC [A25U G30A G33U G44A]: the self-cleavage stood at 0.07.

Turning to GGCAGAGCUCAACACAACGUAGCAAAUUGGCUGUGGUUAGACUGCC [G17A G21A G27U C37U], the self-cleavage was 0.31.

Take GGAAGAGGUCAACACAGCGUGGCAAAGUGGCGGUGGCUAGACUGCC [C3A C8G U32G]: the self-cleavage was 0.17.

For the variant GGCAGCGCUCGACACAGCGUGGCAAAGUGGUUGUGGCAAGCCUGUC [A6C A11G C31U U38A A41C C45U], the self-cleavage was 0.

In the case of GGCAGAGCUCAAAAAAGCGGGGCAAAGUGGCUGUGGCUAGACUGCC [C13A C15A U20G], the self-cleavage was 0.02.

With GGCAGGGGUCCACAGAGCGUGGCAAAUGGGCUGUGGCUAGACUGCC [A6G C8G A11C C15G G27U U28G], the self-cleavage was 0.01.

As for GGCAGAGCUCAACACCGCGUAGCAAAGUGGCUGUUACUAGACUGCC [A16C G21A G35U G36A], the self-cleavage came out at 0.18.

Turning to GGCAGAGCUCAACAUAACGUGGCAAAGUGGCUGUGGCUAUACUGCC [C15U G17A G40U], the self-cleavage was found to be 0.22.

On to GGCAGCGCUCAACACAGCGGGGCAAAGUCGCAGUGCCUAGACUCCC [A6C U20G G29C U32A G36C G44C], for which the self-cleavage is 0.04.

Consider GGCAGAGCUCAACACAGCGUAGCAAAGUGGCUGUCGCUAGACGGCC [G21A G35C U43G], for which the self-cleavage worked out at 0.03.

On to GGCAGAGCUCAACACAGCGUGGCAGAGUGGCUGUGGUUAGUCUGCC [A25G C37U A41U], for which the self-cleavage is 0.03.

With CGCAUAGCUCAACACAGUGUGGGAAAGUGGCUGUGGCUGGUCUGCC [G1C G5U C18U C23G A39G A41U], the self-cleavage was determined as 0.

Turning to GGCAGUGCACAACACAGCGUGACAAAGUGGCUGUGGCUAGACUGCC [A6U U9A G22A], the self-cleavage is 0.05.

With GGCAGAGCUCAACACAGCGAGGCAAAGCGGCUGUGGCUAGAGUGCC [U20A U28C C42G], the self-cleavage came to 0.01.

Take GGCAGAGCUCAAAACAUCCUGGCAAAGGGGCUGUGGCUAGACUGCC [C13A G17U G19C U28G]: the self-cleavage was found to be 0.07.

For GGCAGACCUAAACACAGCGUGGCAAAAUGGCAGUGGCUAGACUGCC [G7C C10A G27A U32A], the self-cleavage was found to be 0.02.

With GGCAAAGCUCAACACAGUGUGGCAAAGUGGCUGUGUCUAGACUGCC [G5A C18U G36U], the self-cleavage came to 0.12.

Turning to GGCAGAGCUCAACACAGCGUGGCAAAGUGGCUGUGGCUGUAGUGCC [A39G G40U C42G], the self-cleavage was 0.29.

As for GGCAGAGCUCAACACAGCGUGUCAAAAUGGCUGUAGCCAGGCUGCC [G22U G27A G35A U38C A41G], the self-cleavage is 0.18.

Take GGCAGAGCUCAUCAAAGCGUGGCAAAGUAGCUGUGGCUAGAAUGCC [A12U C15A G29A C42A]: the self-cleavage came to 0.02.

In the case of GUCAGUGCUCAACACAGCCUGGCAAAGUGGCAGUGGCUACACUGCC [G2U A6U G19C U32A G40C], the self-cleavage was 0.16.

Consider GGCAGAGCUCAGCACAGAGUGGCAAAGUGGCUGUGGCUAGACUGCA [A12G C18A C46A], for which the self-cleavage stood at 0.03.

Turning to GGCUGAGCUCAACACAGCGUGGCAAAGUCGCUGUGGCUAGACUCCC [A4U G29C G44C], the self-cleavage worked out at 0.08.

For GGCAGAGCUCAAGACGGCGUGGCAAAGUGGCUGUGGCUUGACUUCC [C13G A16G A39U G44U], the self-cleavage came to 0.01.

As to GGUAGAGCUCAAAACAGUGUGGCAAAGUGGCUGUGCCUACACUACC [C3U C13A C18U G36C G40C G44A], the self-cleavage turned out to be 0.05.

As to GGCAGAGCUCAACACAGCGUGCCAAAGUGGUUGCGGCUAGACUGCC [G22C C31U U34C], the self-cleavage came out at 0.03.

On to GUCAGAGGUCACCACAGCGUGGCAAAGUGGCUGUGGCUACUCCGAC [G2U C8G A12C G40C A41U U43C C45A], for which the self-cleavage worked out at 0.01.
